# About 220 (0.56%) of roughly 39,000 compounds showed activity. The list shows a part of the results.
# Test system: Escherichia coli K-12 BW25113
# Test: relative growth (OD600 normalised to plate interquartile mean) (fraction); higher = less growth inhibition, active = 0.2 or less
# Details: 50 µM; LB; incubation time: overnight (16-24 h)
# 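Further: static incubation at 37 °C against the wild-type strain, values averaged over two biological replicates.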
row,Structure (SMILES),relative growth
1,Cc1noc(C)c1S(=O)(=O)Nc1ccc2c(c1)C(=O)N([C@H](C)CO)C[C@H](C)[C@@H](CN(C)C(=O)Nc1ccccc1)OCCCC[C@H](C)O2,inactive: 0.984
2,COc1ccc(S(=O)(=O)Nc2cccc3c2O[C@H](CN(C)S(=O)(=O)c2cn(C)cn2)[C@H](C)CN([C@@H](C)CO)C3=O)cc1,inactive: 1.01
3,C[C@H](NC(=O)N(C)C[C@@H]1OCc2ccccc2-c2c(n(C)c3ccccc23)C(=O)N([C@H](C)CO)C[C@H]1C)c1ccccc1,inactive: 0.982
4,C[C@H](CO)N1C[C@H](C)[C@@H](CN(C)Cc2ccc(Oc3ccccc3)cc2)Oc2ccc(NC(=O)CCCN(C)C)cc2C1=O,inactive: 1
5,NCC[C@H]1CC[C@@H](NC(=O)C2CCCCC2)[C@H](CO)O1,inactive: 1
6,O=C([C@@H]1[C@@H](CO)[C@@H]2Cn3c(cccc3=O)[C@H]1N2S(=O)(=O)c1ccccc1F)N1CCOCC1,inactive: 0.995
7,CCCC#Cc1cnc2c(c1)C(=O)N([C@H](C)CO)C[C@H](C)[C@@H](CN(C)S(=O)(=O)c1cn(C)cn1)O2,inactive: 1.01
8,C[C@@H]1CN([C@@H](C)CO)C(=O)c2cc(NC(=O)C3CC3)ccc2O[C@H]1CN(C)S(=O)(=O)c1ccc(F)cc1,inactive: 0.984
9,CO[C@H]1CN(C)C(=O)c2ccc(NC(=O)C3CC3)cc2OC[C@@H](C)N(C(=O)C2CCOCC2)C[C@H]1C,inactive: 1.02
10,COc1ccc(NC(=O)N(C)C[C@@H]2Oc3ccc(NS(C)(=O)=O)cc3CC(=O)N([C@@H](C)CO)C[C@H]2C)cc1,inactive: 0.988
11,C[C@@H]1CN([C@H](C)CO)C(=O)Cc2cc(NC(=O)Cc3ccccc3)ccc2O[C@@H]1CN(C)S(=O)(=O)c1ccc(F)cc1,inactive: 1
12,CN(Cc1[nH]nc2c1CCCC2)C(=O)Cc1n[nH]c(=O)[nH]1,inactive: 0.992
13,N[C@@H]1CC[C@@H](CCn2cc(C3CCCCC3)nn2)O[C@H]1CO,inactive: 1.04
14,C[C@@H]1CN([C@H](C)CO)C(=O)Cc2cc(NC(=O)CCN3CCOCC3)ccc2O[C@H]1CN(C)S(=O)(=O)c1cn(C)cn1,inactive: 0.985
15,O=C(Cc1ccccn1)NCC[C@H]1CC[C@@H](NC(=O)CN2CCOCC2)[C@@H](CO)O1,inactive: 1
16,Cc1cc(C(=O)O)c(=O)[nH]c1C,inactive: 0.956
17,Cc1ccc(S(=O)(=O)N(C)C[C@H]2OCCCC[C@H](C)Oc3ccc(NC(=O)Nc4c(C)noc4C)cc3C(=O)N([C@H](C)CO)C[C@H]2C)cc1,inactive: 1.01
18,COc1ccc(S(=O)(=O)N[C@@H]2CC[C@@H](CC(=O)N3CCC(Cc4ccccc4)CC3)O[C@H]2CO)cc1,inactive: 0.987
19,CC1(C(=O)[O-])CCC2(C)CCC3(C)C(=CC(=O)C4C5(C)CCC(OC(=O)CCC(=O)[O-])C(C)(C)C5CCC43C)C2C1.[Na+].[Na+] (configuration not stated),inactive: 1.06

row,Structure (SMILES),relative growth
1,C[C@@H]1CCCCO[C@H](CN(C)Cc2ccccc2)[C@H](C)CN([C@H](C)CO)C(=O)c2cc(NC(=O)c3ccccc3)ccc2O1,inactive: 1
2,CC(C)NC(=O)N(C)C[C@@H]1OCCCC[C@H](C)Oc2ccc(NC(=O)Nc3ccccc3)cc2C(=O)N([C@@H](C)CO)C[C@H]1C,inactive: 0.983
3,Cc1ccc(S(=O)(=O)N(C)C[C@H]2Oc3ccc(NC(=O)Nc4ccc(C(F)(F)F)cc4)cc3C(=O)N([C@@H](C)CO)C[C@@H]2C)cc1,inactive: 0.984
4,C[C@@H]1CN([C@H](C)CO)C(=O)Cc2cc(NC(=O)Cn3cnnn3)ccc2O[C@H]1CN(C)Cc1ccc(C(=O)O)cc1,inactive: 1
5,C[C@@H]1CN([C@@H](C)CO)C(=O)c2cc(NC(=O)NC3CCCCC3)ccc2O[C@@H](C)CCCCO[C@@H]1CN(C)C(=O)Cc1ccccc1,inactive: 1.02
6,O=C(O)C1=CO[C@@H](O[C@@H]2O[C@H](CO)[C@@H](O)[C@H](O)[C@H]2O)[C@@H]2C(CO)=CC[C@H]12,inactive: 0.976
7,CCCC#Cc1ccc2c(c1)O[C@@H](CN(C)C(=O)c1cnccn1)[C@H](C)CN([C@@H](C)CO)S2(=O)=O,inactive: 1
8,Cc1noc(C)c1NC(=O)Nc1ccc2c(c1)C(=O)N([C@H](C)CO)C[C@@H](C)[C@H](CN(C)S(=O)(=O)c1cccs1)OCCCC[C@@H](C)O2,inactive: 0.984
9,O=C(C[C@H]1C[C@@H]2c3cc(NC(=O)c4ccc5c(c4)OCO5)ccc3O[C@@H]2[C@@H](CO)O1)NCCN1CCCCC1,inactive: 1.02
10,COc1ccc(NC(=O)Nc2ccc3c(c2)C(=O)N([C@H](C)CO)C[C@H](C)[C@H](CN(C)Cc2ccc(Cl)c(Cl)c2)O3)cc1,inactive: 1
11,C[C@@H]1CCCCO[C@@H](CN(C)Cc2ccc(Cl)c(Cl)c2)[C@H](C)CN([C@@H](C)CO)C(=O)c2cc(NC(=O)NC3CCCCC3)ccc2O1,inactive: 1.01
12,C[C@@H]1CCCCO[C@@H](CN(C)C(=O)CCC(F)(F)F)[C@H](C)CN([C@H](C)CO)C(=O)c2cc(NS(=O)(=O)c3ccc(Cl)cc3)ccc2O1,inactive: 0.995
13,C[C@@H]1CN([C@@H](C)CO)C(=O)c2cc(NC(=O)Cc3ccccc3)ccc2O[C@@H](C)CCCCO[C@@H]1CN(C)C(=O)Nc1ccccc1,inactive: 0.982
14,O=C(C[C@@H]1C[C@H]2c3cc(NC(=O)Nc4ccc(C(F)(F)F)cc4)ccc3O[C@H]2[C@H](CO)O1)NC1CCCCC1,inactive: 1.01
15,C[C@@H]1CN([C@H](C)CO)S(=O)(=O)c2ccc(C3=CCCC3)cc2O[C@@H]1CN(C)S(=O)(=O)c1cn(C)cn1,inactive: 1.02
16,CCCN(C)C[C@@H]1Oc2cc(C#Cc3cccc(OC)c3)ccc2S(=O)(=O)N([C@@H](C)CO)C[C@@H]1C,inactive: 0.996
17,C[C@@H]1CN([C@@H](C)CO)C(=O)c2cccc(NC(=O)Nc3cccc4ccccc34)c2O[C@H]1CN(C)S(=O)(=O)c1ccc(Cl)cc1,inactive: 0.991
18,C[C@@H]1CN([C@H](C)CO)C(=O)Cc2cc(NC(=O)Nc3cccc4ccccc34)ccc2O[C@@H]1CN(C)S(=O)(=O)c1cccs1,inactive: 0.985

# Source: the supplement of paper PMC9446081
